Experimental data from PubChem BioAssay AID360 (National Center for Advancing Translational Sciences (NCATS), 2006).
About 550 (1.1%) of roughly 48,000 compounds were called active. Not shown: some 4% with an inconclusive outcome. Rule as the data show it: active = potency below about 15 µM; inconclusive = mostly about 16 µM to 33 µM; inactive = weaker than that. Some of the results follow.

target: Lysosomal acid glucosylceramidase (Homo sapiens) (UniProt P04062); assay: Glucocerebrosidase; settings: purified enzyme, resorufin glucoside fluorescence (screen aimed at inhibitors), 20 min;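 also: the screen sought inhibitors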
Procedure, shortened: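 Wild-type enzyme at 0.2 nM final in 50mM citric acid/KH2PO4, 10mM sodium taurocholate, 0.01% tween-20, pH 5.9, with resorufin beta-D-glucopyranoside at 30 uM final. Compounds titrated, 20 min at RT, red fluorescence read; AC50 from titration.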
Potency is read from the fitted curve at half-maximal effect.

UniProt P04062, sequence (P04062 whole entry, looked up): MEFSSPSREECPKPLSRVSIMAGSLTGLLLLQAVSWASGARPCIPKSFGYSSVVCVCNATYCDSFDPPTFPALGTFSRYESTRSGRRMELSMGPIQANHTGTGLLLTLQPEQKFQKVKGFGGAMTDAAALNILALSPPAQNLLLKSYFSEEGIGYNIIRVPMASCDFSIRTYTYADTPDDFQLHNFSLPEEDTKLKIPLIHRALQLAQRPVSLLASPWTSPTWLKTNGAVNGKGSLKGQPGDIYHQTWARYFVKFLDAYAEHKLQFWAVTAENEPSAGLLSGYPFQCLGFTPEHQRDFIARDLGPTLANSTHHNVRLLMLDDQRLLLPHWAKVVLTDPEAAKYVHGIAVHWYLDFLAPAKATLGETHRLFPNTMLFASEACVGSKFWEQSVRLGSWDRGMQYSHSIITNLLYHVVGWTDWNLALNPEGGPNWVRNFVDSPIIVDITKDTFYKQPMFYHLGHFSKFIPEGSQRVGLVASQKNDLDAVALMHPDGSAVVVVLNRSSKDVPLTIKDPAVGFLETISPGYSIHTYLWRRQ

Potency, inactive:
COc1ccc(C2(NC(C)=O)CCN(C(=O)CCC(=O)O)CC2)cc1 > 76.9 µM
CCCCn1nnnc1NCc1cccc(OC)c1OC > 76.9 µM
Cc1nccn1S(=O)(=O)c1ccc(Br)cc1Br > 76.9 µM
Cc1cccn2c(=O)c3cc(C#N)c(=NC(=O)c4cccnc4)n(CC4CCCO4)c3nc12 (configuration not stated) > 76.9 µM
CC(C)C(=O)Nc1cccc(NC(=O)c2cc3ccccc3o2)c1 > 76.9 µM
CCSc1nnc(NC(=O)C2(C)Cc3ccccc3C(=O)O2)s1 (configuration not stated) > 76.9 µM
Cc1cc(C)c(C2C(C#N)=C(N)Oc3n[nH]c(C)c32)cc1CN1CCCC1 (configuration not stated) > 76.9 µM
COc1ccc(C(=O)CSc2nc3nc(C)cc(C)c3c(=O)[nH]2)cc1OC > 76.9 µM
CCOCc1nnc(NC(=O)c2ccco2)s1 > 76.9 µM
O=C(NCc1ccc2c(c1)OCO2)c1cc(-c2ccccc2)on1 > 76.9 µM
CCOC(=O)C(NC(=O)c1ccc(OC)cc1)(N1CCOCC1)C(F)(F)F (configuration not stated) > 76.9 µM
CC1CCN(C(=O)CSc2nc(N)c3c4c(sc3n2)CN(C)CC4)CC1 > 76.9 µM
O=C(Cn1cnc2c(cnn2-c2ccc(Cl)cc2)c1=O)NCCc1ccccc1 > 76.9 µM
Cc1ccc(Cn2ccc(NC(=O)CCSc3nc(-c4ccco4)cc(C(F)(F)F)n3)n2)cc1 > 76.9 µM
COc1ccccc1CNC(=O)COC(=O)c1ccc(S(=O)(=O)N2CCCC2)cc1 > 76.9 µM
O=C(Nc1ccn(Cc2ccc(Cl)cc2)n1)c1ccc2c(c1)OCO2 > 76.9 µM
CCCCCn1c(CN2CCN(Cc3ccccc3)CC2)nc2c1c(=O)[nH]c(=O)n2C > 76.9 µM
COc1ccc(Cc2nnc(SCc3nc4ccccc4c(=O)[nH]3)n2C)cc1 > 76.9 µM
CNCc1cc2ccc(C)cc2[nH]c1=O > 76.9 µM
CC1CCc2c(sc3ncn4c(SCC(=O)NCc5ccco5)nnc4c23)C1 (configuration not stated) > 76.9 µM
COc1ccccc1C1CC(=O)NC(C)=C1C(=O)OCC(C)C (configuration not stated) > 76.9 µM
CCC(C)NC(=O)c1cn(C)c(=O)c2cc(OC)c(OC)cc12 (configuration not stated) > 76.9 µM
CCCC(CCC(=O)NC1CCCCC1)C(=O)O (configuration not stated) > 76.9 µM
CCCC(=O)N(c1ccc2oc(=O)sc2c1)S(=O)(=O)c1cccs1 > 76.9 µM
c1ccc(OCCn2cnc3ccccc32)cc1 > 76.9 µM
CCCCOc1ccc(NC(=O)Cn2c(=O)ccc3c(C)cc(C)nc32)cc1 > 76.9 µM
Nc1ccc(-c2n[nH]c(=O)c3ccccc23)cc1N > 76.9 µM
O=C1c2ccccc2C(=O)N1CCn1nc(Cl)nc1Cl > 76.9 µM
COC(=O)c1sc(N2C(=O)c3oc4ccccc4c(=O)c3C2c2cccs2)nc1C (configuration not stated) > 76.9 µM
COc1ccc(S(=O)(=O)N2CCC(C(=O)NCc3ccco3)CC2)cc1 > 76.9 µM
Cc1nn(C)cc1CNC(=O)c1cc2n(n1)C(C(F)(F)F)CC(c1cccs1)N2 (configuration not stated) > 76.9 µM
Nc1nnc(SCc2ccccc2F)n1-c1ccccc1 > 76.9 µM
COCCNC(=O)c1cc2cc(Br)cc(OC)c2oc1=O > 76.9 µM
CCOC(=O)CSc1nnc(CNC(=O)Cc2ccccc2)n1-c1ccccc1OC > 76.9 µM
CCc1nc(-c2ccc(-c3ccc(OC)cc3)nc2OC)no1 > 76.9 µM
Cn1nnnc1SCC(=O)N1CCN(c2cccc(Cl)c2)CC1 > 76.9 µM
Cc1ccc2c(CC(=O)N3CCN(S(=O)(=O)c4ccc5c(c4)OCCO5)CC3)coc2c1 > 76.9 µM
Cc1ccc(NC(=O)c2noc3c2CCCCC3)cc1 > 76.9 µM
CCc1cc2ccc(OC)cc2nc1SCC(=O)Nc1cc(C)on1 > 76.9 µM
COc1ccc(Cc2n[nH]c(=O)c3ccccc23)cc1OC > 76.9 µM
COc1cc(-c2nnc3sc(-c4cccnc4)nn23)cc(OC)c1OC > 76.9 µM
CCC(c1nnnn1C(C)C)N1CCN(C2CCCC2)CC1 (configuration not stated) > 76.9 µM
Cc1ccc(S(=O)(=O)NC(CC(=O)O)c2ccccc2)cc1 (configuration not stated) > 76.9 µM
CCN(CC)c1nc(C#N)cc(-c2ccc(OC)cc2)n1
CC(C)OC(=O)Cn1cnc2ccc(Br)cc2c1=O > 76.9 µM
CCOc1ccc(/C(O)=C2\C(=O)C(=O)N(CCN(C)C)C2c2cc(OC)ccc2OC)cc1Cl (configuration not stated) > 76.9 µM
O=S(=O)(c1cc(C(F)(F)F)ccc1Cl)N1CCCCCC1 > 76.9 µM
CCOC(=O)C1C(c2ccc3c(c2)OCO3)NC(=O)NC1(O)C(F)(F)F (configuration not stated) > 76.9 µM
CC(=O)c1cccc(NC(=O)CC2SC(N3CCCCC3)=NC2=O)c1 (configuration not stated) > 76.9 µM
O=C(NCc1ccco1)C1CN(S(=O)(=O)c2ccccc2)CCN1S(=O)(=O)c1ccccc1 (configuration not stated) > 76.9 µM
COc1ccc(CNC(=O)c2cccc(N(C)C)c2)cc1 > 76.9 µM
CCc1nc(N2CCCC2C(=O)O)c2oc3ccccc3c2n1 (configuration not stated) > 76.9 µM
N#Cc1c(N)nc(SCC(=O)OCc2ccccc2)c(C#N)c1-c1ccco1 > 76.9 µM
O=C(CS(=O)(=O)Cc1ccccc1)Nc1ncccn1 > 76.9 µM
Nc1nnc(SCc2ccc(F)cc2)s1 > 76.9 µM
Cc1ccc(S(=O)(=O)N2CCN(C(=O)c3c(C)nn(-c4ccccc4)c3Cl)CC2)cc1 > 76.9 µM
COc1ccc(S(=O)(=O)Nc2ccc(S(=O)(=O)Nc3nc(C)cc(C)n3)cc2)cc1OC > 76.9 µM
Cn1c(CCNC(=O)C(C)(C)C)nc2ccccc21 > 76.9 µM
CCOC(=O)N1CCN(C(=O)CSc2nc3ccccc3c(=O)n2-c2ccccc2)CC1 > 76.9 µM
CCOC(=O)C(C)On1c(SC(C)C(=O)OCC)nc2ccccc2c1=O (configuration not stated) > 76.9 µM
Cc1ccc(CN2C(=O)CCC2C(=O)NCCCN2CCCCC2C)cc1 (configuration not stated) > 76.9 µM
Cc1nc(N2CCCC2C(=O)O)c2oc3ccccc3c2n1 (configuration not stated) > 76.9 µM
O=C(CCn1nnc2ccccc21)N1CCC(O)(c2cccc(F)c2)CC1 > 76.9 µM
O=C(CCN1C(=O)C2C3C=CC(C3)C2C1=O)NCCN1CCCc2ccccc21 (configuration not stated) > 76.9 µM
C=CCNC(=O)C1CC(c2cccc(OC)c2)=NO1 (configuration not stated) > 76.9 µM
Cc1ccc2c(c1)N(Cc1ccccn1)C(=O)C(C)O2 (configuration not stated) > 76.9 µM
O=C1Nc2ccccc2N=C(c2ccccc2)C1N1CCOCC1 (configuration not stated) > 76.9 µM
COc1cccc(C(O)CC(N)=O)c1 (configuration not stated) > 76.9 µM
COCC(=O)OCn1nnc2ccccc2c1=O > 76.9 µM
CC(=O)c1c(C)[nH]c(C(=O)OCn2nnc3ccccc3c2=O)c1C > 76.9 µM
O=C(CSc1nnnn1C1CCCCC1)NCc1ccco1 > 76.9 µM
CC(CCc1ccccc1)NC(=O)CSc1nnnn1C (configuration not stated) > 76.9 µM
CC1CCC(NC(=O)C2c3ccccc3C(=O)N2CCCN2CCOCC2)CC1 (configuration not stated) > 76.9 µM
O=S(=O)(Nc1ccc(-c2nc3ccccc3o2)cc1)c1ccccc1 > 76.9 µM
CCCn1cc(NC(=O)C2CC(c3cccc(Br)c3)=NO2)cn1 (configuration not stated) > 76.9 µM
O=C(O)CCc1ccc(-c2cccs2)n1CCC(=O)O > 76.9 µM
CC(C)(C)C(=O)CNS(=O)(=O)c1ccc(S(=O)(=O)NC2CCCC2)cc1 > 76.9 µM
O=C(NCCC1=CCCCC1)C1CCN(S(=O)(=O)c2cccc3nonc23)CC1 > 76.9 µM
COc1ccccc1Nc1ncc(C(C)=O)c(C)n1 > 76.9 µM
COc1cccc(-n2c(SCC(=O)Nc3cc(C)on3)nc3ccccc3c2=O)c1 > 76.9 µM
Cc1nc(CSc2nnc(C)s2)cs1 > 76.9 µM
CC(C)[C@H](NC(=O)Nc1cccc(C(F)(F)F)c1)C(=O)O > 76.9 µM
O=C(CSc1nc(-c2ccccc2)cc(=O)[nH]1)N1CCc2ccccc21 > 76.9 µM
Cc1ccc(N2C(=O)C3C4C=CC(C4)C3C2=O)cc1 (configuration not stated) > 76.9 µM
CCN1C(=O)/C(=C2\SC(=S)N(CCCOC)C2=O)c2ccccc21 > 76.9 µM
CS(=O)(=O)N1CCC(C(=O)Nc2ccccc2F)CC1 > 76.9 µM
Cc1c(Cl)cccc1NC(=O)NC1CCCCC1 > 76.9 µM
CCCn1c(NCc2cccc(OC)c2OC)nc2ccccc21 > 15.4 µM
CN(C)c1ccc(P(=O)(OCc2ccccc2)C(O)c2cccnc2)cc1 (configuration not stated) > 76.9 µM
O=S(=O)(c1cccs1)n1cccn1 > 76.9 µM
O=C1CCCC2=C1C(Cc1ccccc1)C1=C(CCCC1=O)O2 > 76.9 µM
O=C(CSc1ncnc2c1oc1ccccc12)N1CCCc2ccccc21 > 76.9 µM
